Data published in patent US20050282943A1, “Solubilized additive composition comprising acidic and basic constituents” (INVISTA NORTH AMERICA S.A R.L., priority 2004, published 2005).
Converted amounts (≈) assume the structure as drawn. Like-named read-outs stand apart in the source and are kept apart here.

Key:
[1] = cited from earlier work
[2] = Dissolution of water insoluble additive in demineralized water on adding a counterpart salt forming species (visual); conditions: for behaviour of the additive in demineralized water alone: before any counterpart salt forming species is added; for solubility in water (conclusion in words): Comparative Examples 9, 10 and 11

## CC(C)(C)c1cc(CCC(=O)O)cc(C(C)(C)C)c1O [Irganox 1310, 3-(3,5-di-t-butyl-4-hydroxyphenyl)propionic acid]
[1]; safety data sheet, no temperature given
  solubility in water: insoluble in water
[2]; Comparative Example 11, a further two additional amounts of hexamethylenediamine 0.005 mol
  dissolution (observation): failed to dissolve the precipitate
[2]; Comparative Example 11, additional hexamethylenediamine 0.005 mol (second amount)
  dissolution (observation): failed to dissolve the precipitate
[2]; Comparative Example 11, an additional 10 g of demineralized water
  dissolution (observation): failed to dissolve the suspension
[2]; Example 12, 1:1 solution cooled to room temperature
  stability of solution on cooling: stayed as a clear colourless solution
[2]; Example 12, further triacetonediamine 0.0025 mol, mol ratio Irganox 1310:triacetonediamine 1:1
  dissolution (observation): all solids dissolved to form a clear colourless solution
[2]; Example 12 mixture heated to about 75° C.
  dissolution (observation): still not all the solids had dissolved
[2]; Example 12 mixture, further addition of 5 g demineralized water
  dissolution (observation): caused a white precipitate to form
[2]; Irganox 1310 0.001 mol + KOH 0.001 mol in 1 g demineralized water (Example 10)
  dissolution (observation): rapidly dissolved to form a clear colourless solution
[2]; Irganox 1310 0.0075 mol added to triacetonediamine 0.005 mol in 10 g demineralized water (Example 12)
  dissolution (observation): not all the Irganox 1310 dissolved
[2]; Irganox 1310 0.01 mol + NaOH 0.01 mol in 10 g demineralized water (Example 9)
  dissolution (observation): rapidly dissolved to form a clear colourless solution
[2]; Irganox 1310 0.01 mol + triacetonediamine 0.01 mol in 10 g demineralized water (Example 11)
  dissolution (observation): a clear colourless solution formed with most of the solids dissolved
[2]; Irganox 1310 2.07 g + 0.43 g hexamethylenediamine in 20 mL water (Comparative Example 10)
  dissolution (observation): a thick white precipitate remains
[2]; Irganox 1310 2.78 g in 10 g demineralized water + hexamethylenediamine 0.005 mol (Comparative Example 11)
  dissolution (observation): wetted out but formed a precipitate of a heavy white suspension
[2]; Irganox 1310 + KOH (1:1 mol) in demineralized water (Example 10)
  additive content of solution: about 20 w %
[2]; Irganox 1310 + NaOH (1:1 mol) in demineralized water (Example 9)
  additive content of solution: about 21 w %
[2]; Irganox 1310 + hexamethylenediamine in 20 mL water, heated to 60° C. (Comparative Example 10)
  dissolution (observation): fails to dissolve the product
[2]; Irganox 1310 + triacetonediamine (1:1 mol) in 15 g demineralized water (Example 12)
  additive content of solution: about 11 w %
[2]
  behaviour of the additive in demineralized water alone: failed to wet out and floated on the surface of the water

## CC1(C)CC(OC(=O)CCCCCCCCC(=O)OC2CC(C)(C)NC(C)(C)C2)CC(C)(C)N1 [Tinuvin 770]
[1]; 20° C., technical data sheet
  solubility in water: < 0.01 g/100 g

## CCCCC(Cc1cc(C(C)(C)C)c(O)c(C(C)(C)C)c1)(C(=O)OC1CC(C)(C)N(C)C(C)(C)C1)C(=O)OC1CC(C)(C)N(C)C(C)(C)C1 [Tinuvin 144]
[1]; 20° C., safety data sheet
  solubility in water: insoluble in water

## CN1C(C)(C)CC(OC(=O)CCCCCCCCC(=O)OC2CC(C)(C)N(C)C(C)(C)C2)CC1(C)C [Tinuvin 765, Bis(1,2,2,6,6-pentamethyl-4-piperidinyl) sebacate]
[1]; 20° C., technical data sheet
  solubility in water: < 0.01 % w/w

## CC(C)(C)c1cc(CCC(=O)O)cc(C(C)(C)C)c1O.CC(C)(C)c1cc(CCC(=O)O)cc(C(C)(C)C)c1O.NCCCCCCN [1,6-hexamethylenediammonium bis(3,5-di-t-butyl-4-hydroxyphenyl)propionate, reference compound]
[2]; 2.5 g of isolated salt in 20 mL water with stirring (Comparative Example 9)
  dissolution (observation): failed to dissolve, but rather formed a thick suspension
[2]; 2.5 g of isolated salt in 20 mL water, heated to 60° C. (Comparative Example 9)
  dissolution (observation): failed to dissolve the product
[2]; 2.5 g of isolated salt, a further 200 mL of water at 25° C. (Comparative Example 9)
  dissolution (observation): failed to dissolve the product
[2]; listed as 1,6-hexamethylenediamminium bis(3,5-di-t-butyl-4-hydroxyphenyl)propionate salt
  solubility in water (conclusion in words): substantially insoluble in water
[2]; listed as hexamethylenediamine salt of 3-(3,5-di-t-butyl-4-hydroxyphenyl)propionic acid
  solubility in water (conclusion in words): insufficient solubility in water

## CC1(C)CC(NC(=O)c2cccc(C(=O)NC3CC(C)(C)NC(C)(C)C3)c2)CC(C)(C)N1 [Nylostab SEED, N,N′-bis(2,2,6,6-tetramethyl-4-piperidinyl)-1,3-benzenedicarboxamide]
[1]; 30° C., safety data sheet
  solubility in water: 0.139 g/L (≈ 314 µM)
[2]; Nylostab SEED + terephthalic acid (1:1 mol) in demineralized water (Example 3)
  dissolution (observation): gradually dissolved to form a colourless solution
[2]
  behaviour of the additive in demineralized water alone: wetted out but did not dissolve
